PubChem BioAssay AID1963576 (National Center for Advancing Translational Sciences (NCATS), 2024)
Hit rate of the full screen: of about 46,000 compounds, about 60 (0.1%) were called active. Inconclusive results (about 3%) are left out. The call rests on the fitted dose curve; in most records, active means well fitted inhibition curve with a large enough effect; inconclusive means small, poorly fitted or top-dose-only effect; inactive means no such curve, though single readings can be large or run the other way. This is one part of the list.

Test: Primary qHTS assay for Inhibitors of ovarian cancer metastasis using an organotypic tumor microenvironment (TME) model. Further: nearly all actives have a fitted effect of over 65% in size.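 On activity change, negative = inhibition: plate controls were DMSO wells for no effect and tomatine positive control wells for full effect.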
Details: SKOV3ip1-GFP adhesion/invasion on 3D omental model, fluorescence; series mostly up to 45.8 µM; activity change, negative = inhibition: at the top concentration
In short: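 A 3D layer of primary human omental fibroblasts, mesothelial cells, fibronectin and collagen I, grown 48 hr, received SKOV3ip1-GFP cells in serum-free medium plus compounds at 0.36-46 umol/L. After 2 hr RT and 16 hr 37 C, fixed adherent GFP cells were counted; normalized to DMSO and tomatine.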

Activity change, negative = inhibition, inactive:
CCCn1c(=O)c2sccc2n2c(CCCC(=O)Nc3cccc(CC)c3)nnc12 5.39%
COCCCNC(=O)CSc1nc(-c2ccccc2)[nH]c1-c1ccc(C)cc1 2.57%
Cn1c(=O)[nH]c2cc(-c3noc(-c4ccc(F)cc4)n3)ccc21 5.59%
COc1cccc(NC(=O)/C(C#N)=C\c2cn(Cc3ccc(Cl)cc3)c3ccccc23)c1 11.3%
Cc1ccc(Cl)cc1NC(=O)C(=O)NCCc1sc(-c2ccc(F)cc2)nc1C -0.658%
COc1ccc(CC(=O)Nc2sc3c(c2C(=O)Nc2c(C)cccc2C)CCCCC3)cc1 -10.3%
CCCCc1ccc(C(=O)N/C(=C\c2ccc(C)cc2)C(=O)NC2CCCCC2)cc1 4.14%
CCc1nc2ccc(C(=O)N3CCN(c4ccc(Cl)cc4)CC3)cc2nc1CC -3.85%
Cc1cc(C(F)F)n2nc(C(=O)Nc3ccc(F)c(Cl)c3)nc2n1 -20.1%
COc1ccc(-c2oc3c(CC=C(C)C)c(OC4O[C@H](CO)[C@@H](O)[C@H](O)[C@@H]4O)cc(O)c3c(=O)c2OC2O[C@@H](C)[C@H](O)[C@@H](O)[C@@H]2O)cc1 (stereo not given in full) -5.06%
CCCOc1ccc(C(=O)Nc2c(C(=O)c3ccc(C)cc3)oc3ccccc23)cc1 -15.6%
COc1ccc(CNC(=O)Cn2c(=O)oc3cc(S(=O)(=O)N4CCCC4)ccc32)cc1 2.15%
C[C@H](Cn1cnc2c(N)ncnc21)OCP(=O)(O)O -14.3%
O=C(CC1N=C2c3ccccc3N=C(SCc3ccccc3F)N2C1=O)NCc1cccs1 (stereo not given) 4.51%
Cc1cccc(CNC(=O)c2ccc(Cn3c(=O)c4cccn4c4cccnc43)cc2)c1 -0.357%
COc1cccc(Nc2nc(-c3ccccc3)c3cc(C)ccc3n2)c1 -11.7%
Cc1ccc(NC(=O)C(Cc2ccccc2)NS(=O)(=O)c2cccc3nsnc23)c(C)c1 (stereo not given) -6.66%
CC1CCCCN1S(=O)(=O)c1ccc2c(c1)oc(=O)n2CC(=O)Nc1ccc(Cl)cc1 (stereo not given) 5.7%
COc1cc(C2CC(=O)Nc3c2c(=O)nc2c(C)cccn32)cc(OC)c1OC (stereo not given) -27.5%

outcome, inactive:
CCc1ccc(-n2c(=O)c3c4c(sc3n(CC(=O)NC(C)CC)c2=O)CCCC4)cc1 (stereo not given)
CCn1c(=O)cc(SCC(=O)NCCc2ccc(OC)cc2OC)c2ccccc21
COc1ccc(NC(=O)CSC2=Nc3ccccc3C3=NC(CC(=O)NCc4ccc(F)cc4)C(=O)N23)cc1 (stereo not given)
CCc1ccc(-c2nn(CC(=O)NC3CCCCC3)c3c2cnc2ccc(OC)cc23)cc1
COc1ccc2c(C)c(CCC(=O)NCCc3ccc(Cl)cc3)c(=O)oc2c1
Cc1cccc(S(=O)(=O)c2cn(Cc3ccccc3)c3cc(N4CCCCC4C)c(F)cc3c2=O)c1 (stereo not given)
